# PubChem BioAssay AID1671193 (National Center for Advancing Translational Sciences (NCATS), 2021)
# About 180 (0.12%) of roughly 150,000 compounds were called active. Inconclusive results, whose numbers are uncertain, are shown with a selection of clear calls. Calls come from the whole dose curve; as a rule, active = well fitted cell-killing curve with a large enough effect; inconclusive = small, poorly fitted or top-dose-only effect, or effect the other way; inactive = flat fitted curve, though single readings scatter. A potency beside an inconclusive call is a rough fit, not a confirmed value.
# Test: GF-AFC viability counterscreen for inhibitors of alpha-synuclein gene (SNCA) expression; note: nearly all actives have a fitted effect of over 30% in size;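 for activity change, negative = cytotoxicity: 0% = DMSO-treated cells and -100% = medium-only wells without cells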
# Conditions: HEK-293-SNCA-luc viability, GF-AFC fluorescence, 24 h; activity change, negative = cytotoxicity: at 57.1 µM (top of the series) unless noted
# How it was run: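 HEK-293-SNCA-luc cells (1500/well) plated 24 h, then exposed 24 h to a dilution series; GF-AFC added 30 min at 37C, fluorescence 405/540 nm; normalised to medium-only and DMSO wells, Hill fit.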
# Potency is the fitted concentration of half-maximal effect; tags give direction and shape of the fitted curve.
SMILES,"activity change, negative = cytotoxicity",Potency
Fc1ccc(Nc2nc(-c3ccccc3)no2)cc1,inactive: -6.69%,–
O=C(NCCCN1CCCCC1)c1ccc2c(c1)sc1nc(-c3ccc(F)cc3)cn12,–,"inconclusive: 14.1 µM [cytotoxic, partial curve]"
Cc1noc(C)c1-c1cc2cc(CN(C)C)oc2c(-c2ccc([S+](C)(=O)[O-])cc2)n1,inactive: -6.38% [at 87.6 µM],–
NC(=O)C1CCN(C(=O)c2ccc3c(c2)N(Cc2cccc(Cl)c2)C(=O)c2ccccc2S3(=O)=O)CC1,–,"inconclusive: 3.16 µM [cytotoxic, partial curve, poor fit]"
Cn1nccc1OCc1cn2c(=O)n(C)cc(-c3cccc(OCc4ccccc4)c3)c2n1,–,"inconclusive: 7.94 µM [cytotoxic, full curve]"
Cc1ccc(S(=O)(=O)N[C@H]2CO[C@H]3[C@@H]2OC[C@@H]3Nc2nccc(C(C)(C)C)n2)cc1,–,"inconclusive: 31.6 µM [cytotoxic, single point]"
O=C1NC(=NC2CCCC2)C2(CCN(CC3CC3)CC2)N1c1cc(F)cc(F)c1,inactive: 0.536%,–
COCCOc1cc(C)c2c(c1C)C[C@H](C(C)C(=O)NCc1cccs1)CC2 (some centres not stated),inactive: -6.37% [at 87.6 µM],–
O=C(NCC1CN(C(=O)Cc2ccc(OC(F)(F)F)cc2)CC12CN(c1ccccc1)C2)Nc1ccccc1 (configuration not stated),–,"inconclusive: 25.1 µM [cytotoxic, single point]"
COc1ccc(C(=O)NC[C@@H]2C=C(C)[C@H](Cc3nnc(-c4cncn4C)o3)C[C@H]2C(C)C)cc1,–,"inconclusive: 31.6 µM [cytotoxic, single point]"
COc1ccc(C(=O)NC(C(=O)N2CCCCC2)C2CCN(C(=O)C3CC3)CC2)cc1 (configuration not stated),–,"inconclusive: 39.8 µM [cytotoxic, single point]"
Cc1cc2cc(-c3c(C)noc3C)nc(Nc3ccccc3)c2o1,inactive: -24.4% [at 87.6 µM],–
Cc1ccc(NC(=O)Cn2cc(C(=O)c3ccco3)c3ccccc32)c(C)c1,–,"inconclusive: 25.1 µM [cytotoxic, partial curve, poor fit]"
C#CCN[C@H]1C[C@@H]2c3[nH]c4ccccc4c3C[C@@H](C(=O)OC)N2[C@H](c2ccc(F)cc2)C1,–,"inconclusive: 35.5 µM [cytotoxic, single point]"
COc1ccccc1Cn1c(=O)c(C(=O)N2CCN(C(=O)c3ccccc3F)CC2)nc2cccnc21,inactive: -8.64%,–
Cc1cc(C)cc(NC(=O)CCCc2nnc3n(CC(C)C)c(=O)c4sccc4n23)c1,–,"inconclusive: 7.08 µM [cytotoxic, partial curve, poor fit]"
Cc1ccccc1N(C)C1CN(Cc2cccc3ccccc23)C1,–,"inconclusive: 44.7 µM [cytotoxic, single point]"
O=C(c1cccc(O)c1)N1CCc2c(n(Cc3cccnc3)n(-c3ccccc3)c2=O)C1,inactive: 1.2% [at 87.6 µM],–
COc1ccc(CN2CCC3(CC2)COCCN3C(=O)OCc2ccccc2)cc1O,–,"inconclusive: 20 µM [cytotoxic, partial curve, poor fit]"
CC(C)N1C(=O)C2(CCCCC2)C1C(=O)N1CCN(c2ccccn2)CC1 (configuration not stated),–,"inconclusive: 2 µM [rising, full curve, poor fit]"
O=C(Nc1cccc(F)c1)N1CC2(CCN(C(=O)c3csnn3)CC2)C1,–,"inconclusive: 39.8 µM [cytotoxic, single point]"

SMILES,"activity change, negative = cytotoxicity",Potency
O=C(c1cc(F)ccc1F)N1CCN(C(=O)c2nnn3c2COC(c2ccc(Cl)cc2)C3)CC1 (configuration not stated),–,"inconclusive: 8.91 µM [cytotoxic, single point]"
Clc1ccc(CNC2(Cc3cc(COc4ccccc4)on3)COC2)cc1,inactive: -1.93% [at 87.6 µM],–
COc1cccc(CC2(CO)CCCN(c3ccc(-c4nccn4C)nn3)C2)c1 (configuration not stated),–,"inconclusive: 39.8 µM [cytotoxic, single point]"
O=C(NC1CCN(c2cnn(Cc3ccccc3)c(=O)c2)CC1)c1ccsc1,–,"inconclusive: 7.08 µM [cytotoxic, single point]"
CN(C)C[C@@H]1CN(Cc2cccnc2)C[C@H]1NC(=O)c1cc2ccccc2[nH]1,inactive: -9.91%,–
CC(=O)N1CCc2c(sc3c2c(=O)n(-c2ccccc2)c(=O)n3Cc2cccc(C(F)(F)F)c2)C1,–,"inconclusive: 12.6 µM [cytotoxic, partial curve, poor fit]"
Cc1ccc(C(=O)N2CCc3nc(C4CC4)nc(-c4ccc(Cl)cc4)c3CC2)cc1,–,"inconclusive: 25.1 µM [cytotoxic, single point]"
COc1ccc(-c2cc(C(=O)NCCc3ccccc3)c3c(-c4ccccc4)[nH]nc3n2)cc1,–,"inconclusive: 39.8 µM [cytotoxic, single point]"
O=C(N[C@@H]1[C@@H](Cc2ccccc2)[C@H]2OCC[C@@H]12)c1scc2c1OCCO2,–,"inconclusive: 7.08 µM [cytotoxic, partial curve, poor fit]"
CCOc1cc(CNCCSc2nnnn2C)cc(Cl)c1OCc1ccc(Cl)cc1,–,"inconclusive: 39.8 µM [cytotoxic, single point]"
Cc1ccc(-c2cc(C(=O)NCc3cccc(F)c3)nn3cnnc23)cc1,–,"inconclusive: 1.78 µM [cytotoxic, full curve, poor fit]"
FC(F)(F)c1ccc(Nc2nc3ccc(Oc4ccnc(-c5ncc(C(F)(F)F)[nH]5)c4)cc3[nH]2)cc1,–,"inconclusive: 37.7 µM [cytotoxic, partial curve, poor fit]"
CC(=O)Nc1ccccc1-c1nc2ccccc2n(C(C)C(=O)Nc2cccc(C)c2C)c1=O (configuration not stated),–,"inconclusive: 11.2 µM [cytotoxic, partial curve]"
CCOc1ccc(NC(=O)CC2C(=O)N(c3cccc(C)c3)C(=O)N2CCC2=CCCCC2)cc1 (configuration not stated),–,"inconclusive: 39.8 µM [cytotoxic, single point]"
NC(=Nc1ccc(CCNCc2cccc(Cl)c2)cc1)c1cccs1,inconclusive: -52.9% [cytotoxic],–
CCNc1ncc2nc(-c3cccs3)c(=O)n(-c3ccc(OC)cc3)c2n1,–,"inconclusive: 3.98 µM [rising, single point]"
CCOc1ccccc1N=Nc1c(C)[nH]n(-c2nc(-c3ccccc3)cs2)c1=O,–,"inconclusive: 42.9 µM [cytotoxic, partial curve, poor fit]"
COc1cccc(-c2csc(CN3CCCC(C)(NC(C)=O)C3)c2)c1 (configuration not stated),inactive: -5.41% [at 87.6 µM],–
O=C(NCc1ccc(F)cc1)C1CCCN(Cc2cccc(-c3ccsc3)c2)C1 (configuration not stated),inactive: -5.86%,–
O=C(c1ccc(F)cc1)N1CCC2(CC1)COc1ccccc1NC2=O,inactive: -0.835%,–
CCOC(=O)c1cc(CC)sc1NC(=O)COc1ccccc1C,–,"inconclusive: 39.8 µM [cytotoxic, single point]"

SMILES,"activity change, negative = cytotoxicity",Potency
CC(C)CNc1cc(NC2CCCCC2)c2c3c(onc13)-c1ccccc1C2=O,–,"inconclusive: 7.94 µM [cytotoxic, full curve, poor fit]"
COCC1OC(OC(C)(C)C2CCC3(C)C=C(C4CCC5C4(C)CC(O)C4OC(C(C)(C)O)CCC45C)CCC3O2)C(NC(C)=O)C(O)C1O (configuration not stated),–,"inconclusive: 11.2 µM [cytotoxic, partial curve, poor fit]"
COc1cc(C2CC(=O)N(CC(=O)Nc3ccccc3F)c3ccccc3S2)cc(OC)c1OC (configuration not stated),–,"inconclusive: 2.51 µM [cytotoxic, full curve]"
CC(=O)NCCNC(=O)c1ccc2c(=O)n(CCc3ccccc3)c(=O)[nH]c2c1,–,"inconclusive: 35.5 µM [cytotoxic, partial curve, poor fit]"
Cc1ccc(C(=O)N2CCC3(CC2)CC(=O)c2ccccc2O3)cc1,–,"inconclusive: 10 µM [cytotoxic, partial curve, poor fit]"
CC(C)N1C(=O)CO[C@H]2CCN(Cc3ccccn3)CC[C@@H]21,inactive: 2.67% [at 87.6 µM],–
COc1ccc(NC(=O)Cn2cc(C(=O)C3CCCCC3)c3ccccc32)cc1,–,"inconclusive: 35.5 µM [cytotoxic, partial curve, poor fit]"
CNC(=O)N1CCC(C2CCN(C(=O)c3cn[nH]c3)C2)CC1 (configuration not stated),inactive: 4.18% [at 12.5 µM],–
C=CC1(C)CC=C2C(CCC3C(C)(C(=O)O)CCCC23C)C1 (configuration not stated),–,"inconclusive: 29.9 µM [cytotoxic, single point]"
CCOC(=O)C1(Cc2cccc(OC)c2)CCCN(C(=O)CCN2CCCCO2)C1 (configuration not stated),–,"inconclusive: 5.62 µM [rising, single point]"
COc1ccc(-c2cc(N3CCCN(C(=O)Cc4cccc(F)c4)CC3)n[nH]2)cc1,inactive: -27.5%,–
CN1CC(=O)N(C2CCCC2)Cc2c1ncnc2N1CCN(c2ncccn2)CC1,inactive: 1.58%,–
COc1ccc(NC(=O)CCCc2nnc3n(CCC(C)C)c(=O)c4sccc4n23)cc1Cl,–,"inconclusive: 1.78 µM [cytotoxic, full curve, poor fit]"
COc1ccc(OCCSc2nc3ccccc3n2CC(=O)N2CCOCC2)cc1,–,"inconclusive: 39.8 µM [cytotoxic, single point]"
COc1ccccc1Cn1c(=O)c(C(=O)N2CCN(C(=O)c3ccc(C)cc3)CC2)nc2cccnc21,inactive: -4.03%,–
O=C(O)Cn1ccc2cc(OCCc3cccc(-c4ccccc4)c3)cnc21,inactive: 5.3% [at 87.6 µM],–
O=C1COc2ccc(-c3ccccc3)nc2CN1,inactive: 1.05% [at 87.6 µM],–
C=C(C)C1CCC2(C(=O)OC3OC(COC4OC(CO)C(O)C(O)C4O)C(OC4OC(C)C(O)C(O)C4O)C(O)C3O)CCC3(C(=O)O)C(CCC4C5(C)CCC(=O)C(C)(C)C5CCC43C)C12 (configuration not stated),inactive: -1.29% [at 12.5 µM],–
Cc1ccc(-n2cc(CN3CCC(CCO)CC3)c(-c3cccc(C)c3)n2)cc1,inactive: -10.5%,–
CO[C@H]1C=CO[C@@]2(C)Oc3c(C)c(O)c4c(O)c(c(C=NN5CCN(C)CC5)c(O)c4c3C2=O)NC(=O)C(C)=CC=C[C@H](C)[C@H](O)[C@@H](C)[C@@H](O)[C@@H](C)[C@H](OC(C)=O)[C@H]1C,–,"inconclusive: 4.89 µM [cytotoxic, partial curve, poor fit]"
